Experimental data published in PubChem BioAssay AID1508623 (National Center for Advancing Translational Sciences (NCATS), 2021).
The campaign covered roughly 48,000 compounds. About 450 (0.94%) were called active. About 19% were inconclusive and are not listed. Calls follow the shape of the dose curve; as a rule, active = well fitted inhibition curve with a large enough effect; inconclusive = small, poorly fitted or top-dose-only effect; inactive = no such curve, though single readings can be large or run the other way. The list shows a part of the results.

test: Primary qHTS for Identification of Small Molecule Inhibitors of Huntingtin Promoter Activity; details: HEK293 HTT promoter firefly luciferase reporter (activity 0% = vehicle and -100% = no light), 24 h; series mostly up to 57.5 µM; activity change, negative = inhibition: at the top concentration; also: nearly all actives have a fitted effect of over 50% in size
Summary of the method: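 Firefly luciferase signal from promoter-reporter HEK293 cells was scaled between vehicle (0%) and zero RLU (-100%). Compounds were tested at final concentrations of up to 57.5 uM over 24 h at 37 degrees C. PTC124 at 50 uM final served as control inhibitor.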

Activity change, negative = inhibition, inactive:
Cc1ccc(NC(=O)c2nc(S(C)(=O)=O)ncc2N(Cc2ccco2)Cc2cccs2)c(C)c1 -34.8%
Cc1ccc(NC(=O)CSc2nc(=O)n(CCN3CCOCC3)c3c2CCC3)c(C)c1 -31.4%
CC(=O)c1cccc(NC(=O)c2nc(-c3ccccc3)n(-c3cccc(Cl)c3)n2)c1 -14.5%
Cc1ccc(OCCCCn2nnc3sc4c(c3c2=O)CCCC4)cc1 7.01%
CC(=O)c1cc(-c2ccccc2)n(CCC(=O)NCc2ccc(C)cc2)c1C -28.2%
CCOc1ccccc1CNc1ccc2cc(S(=O)(=O)N3CCC(C)CC3)ccc2n1 -29%
COc1ccc(-c2nn3c(=O)cc(CN4CCN(C(=O)c5ccc(OC)c(OC)c5)CC4)nc3s2)cc1 -13.3%
COc1ccc(-c2noc(N(c3nc(-c4ccc(OC)c(OC)c4)no3)c3ccccc3OC)n2)cc1OC -0.894%
CCc1ccc(-n2c(=O)c3c(C)c(C)sc3n(CC(=O)NCc3ccc(C)cc3)c2=O)cc1 2.25%
CCCCc1nn2c(=O)cc(COC(=O)c3cccc(NC(=O)CCc4ccccc4)c3)nc2s1 71.6%
CCCN(CCC)C(=O)Cn1c(=O)n(-c2ccccc2)c(=O)c2c3c(sc21)CCCC3 -16.7%
O=S(=O)(NCc1nc2cccnc2n1Cc1ccccc1)c1ccc2c(c1)CCCC2 -13.8%
N#C/C(=C/c1ccc(Cl)cc1)c1nc(-c2ccc(Br)cc2)cs1 -8.18%
Cc1ccc(NS(=O)(=O)c2ccc3[nH]c(=O)oc3c2)c(C)c1 -6.05%
COc1cc2nc(SCC(=O)Nc3c(C)cc(C)cc3C)n3nc(CCn4c(C)nc5ccccc54)nc3c2cc1OC -21.3%
CCOC(=O)c1c(S(=O)(=O)NCC(=O)N2CCN(c3ccccc3)CC2)c(C)n(C)c1C 3.96%
COc1ccccc1CNC(=O)CCn1c(=O)c2ccccc2n(CC(=O)Nc2ccc(C)cc2Cl)c1=O -8.32%
CC(=O)NCC(c1ccc2c(c1)OCO2)N1CCN(c2ccccc2)CC1 (stereo unspecified) -6.51%
Cn1c(=O)c(=O)n(C)c2cc(NC(=O)c3cccc(F)c3)c(Cl)cc21 -2.3%
COc1ccc(N(CC(=O)NCc2ccccc2Cl)S(=O)(=O)c2c(C)nn(C)c2C)cc1 -13.3%
CCOc1ccccc1CNC(=O)CCCn1ncn2c(cc3occc32)c1=O -2.86%
CCOc1ccc(C(=O)c2cn(CC(=O)Nc3ccc(F)cc3)c3cc4c(cc3c2=O)OCO4)cc1 -12.9%
CN(C)CCCN(C(=O)c1ccc(Br)s1)c1nc2ccc(F)cc2s1 3.01%
Cc1ccc2cccc(NC(=O)COc3cc(C)c(Cl)c(C)c3)c2n1 -2.79%
Cc1nn(CC(=O)Nc2ccccc2C(F)(F)F)c(=O)c2cccn12 3.99%
CCCCN(CC)CCNC(=O)CN1C(=O)COc2ccc(S(=O)(=O)N3CCCC3)cc21 -6.16%
Cc1ccc(CCNC(=O)CCn2nc(-c3ccccc3)ccc2=O)cc1 1.08%
COc1ccc(NC(=O)c2ccc3nc(CCc4ccccc4)oc3c2)c(OC)c1 36.9%
CCOc1ccc(C(=O)Nc2c(C(=O)c3ccc(OC)cc3)oc3ccccc23)cc1 -1.33%
O=C(NCCc1ccccc1)c1ccc(Cn2c(SCc3cccc(F)c3)nc3cccnc32)cc1 -18.5%
CCn1c(NCc2ccc(OC)cc2)nc2ccccc21 33.9%
CCOc1ccc(NC(=O)c2ccc3c(=O)n4nc(Nc5ccccc5C)sc4nc3c2)cc1 -1.32%
COc1cc(C(CC(=O)Nc2ccc(F)cc2F)N2Cc3ccccc3C2=O)cc(OC)c1OC (stereo unspecified) -25.7%
CCCCCn1cc2c(c1-c1ccc(Br)cc1)c(=O)n(C)c(=O)n2C -4.97%
CCc1ccccc1NC(=O)Cn1c(=O)n(-c2ccc(C)cc2)c(=O)c2c1c1cc(C)ccc1n2C 3.73%
COc1ccc(OC)c(NC(=O)c2cc3cc(C)ccc3n2C)c1 -14.5%
Cc1nc2ncnn2c(C)c1CCC(=O)N1CCN(c2ccccc2)CC1 -2.46%
Cc1ccccc1CSc1nc2cc(C(=O)NC3CCCC3)ccc2c(=O)n1Cc1ccccc1 0.453%
Cc1cc2c(cc1C)NC(CC(=O)Nc1ccccc1)C(=O)N2 (stereo unspecified) -5.77%
CCN(Cc1ccccc1)C(=O)Cn1cc(S(=O)(=O)Cc2cccc(Cl)c2)c2ccccc21 -14.6%
CCCSc1ccc2nc(NC(=O)OC)[nH]c2c1 -0.24%
CCc1ccc(NC(=O)C(=O)NCC(c2cccnc2)N2CCN(Cc3ccccc3)CC2)cc1 (stereo unspecified) -29%
O=C(CCCn1c(=O)c2cccn2c2ccc(F)cc21)NCc1ccc(Cl)cc1 -5.31%
COC(=O)CC1Oc2ccccc2-n2cc(-c3ccccc3)nc21 (stereo unspecified) -21.2%
CC1CCN(C(=O)CSc2c(C(C)C)cnc3c2c(=O)n(C)c(=O)n3C)CC1 -7.91%
CCOc1ccc(CNS(=O)(=O)c2ccc3[nH]c(=O)ccc3c2)cc1 -24.4%
CCC(=O)Nc1ccc2nc(SCCOc3ccccc3)sc2c1 -12.5%
CCCCOc1ccc(CNC(=O)c2ccc(NC(=O)N3CCCCc4ccccc43)cc2)cc1 -11.6%
CC(=O)Nc1nonc1-c1nnc(SCC(=O)Nc2ccccc2)n1-c1ccccc1 -21.1%
Cc1ccc(NC(=O)CSc2ncn[nH]2)cc1C -15.3%
CNS(=O)(=O)c1cn(CC(=O)Nc2cccc(OC)c2)cc1S(=O)(=O)NC -12.4%
COC(=O)c1ccc(-n2c(CCC(=O)O)ccc2-c2ccc(C)cc2)cc1 -4.92%
CCOC(=O)Cn1c(=O)n(CC2CCCO2)c2nc(-c3cccc(C)c3)nc(C(N)=O)c21 (stereo unspecified) -5.19%
Cc1ccc(C)c(N2CCN(Cc3nnc(-c4ccc5c(c4)OCO5)o3)CC2)c1 -21%
Cn1c(=O)oc2cc(S(=O)(=O)NC(Cc3ccccc3)C(=O)NCc3ccc(F)cc3)ccc21 (stereo unspecified) -7.47%
COc1ccccc1OC(C)C(=O)Nc1c(C(=O)c2ccc(Cl)cc2)oc2ccccc12 (stereo unspecified) -10.4%
CCn1c(C)c(C)c2cc(C(=O)NCCCN3CCCCC3)ccc21 -5.04%
Cc1ccc(N(CC(=O)NCc2ccc(F)cc2)S(=O)(=O)c2c(C)nn(C)c2C)cc1 -7.6%
COc1cccc(CNC(=O)c2ccc3c(c2)nnn3C2CCCC2)c1 -4.59%
CCCCSCCCNC(=O)c1cn(C)c2ccc(S(=O)(=O)N3CCCCC3)cc2c1=O -13.1%
COc1ccc(-n2nc(C(=O)Nc3ccc(C)cn3)c3c4ccccc4n(C)c3c2=O)cc1 -20.4%
Cc1ccc(-n2cc(-c3ccccc3)nc2S(=O)(=O)CC(=O)Nc2ccc(F)cc2)cc1 49.1%
O=C(CNC(=O)c1ccccc1F)OCc1cc(=O)n2ccsc2n1 -4.76%
CCN(CC)C(=O)Cn1c(=O)n(-c2ccc(OC)cc2OC)c(=O)c2c(C)c(C(=O)N(CC)CC)sc21 -9.3%
COc1ccc(OC)c(NC(=O)Cn2ccc3ccccc3c2=O)c1 -0.815%
COc1ccccc1C(=O)Nc1nnc(SCc2cc(=O)c3cc(Cl)ccc3[nH]2)s1 -9.74%
COc1ccc(NC(=O)c2c(-c3ccc(C)cc3)nnc3ccccc23)cc1Cl -28.7%
O=S(=O)(c1ccccc1)c1nc(-c2ccc(Cl)cc2Cl)oc1N1CCCCC1 -9.26%
CCN(CC)CCCNC(=O)c1cn(CC)c2ccc(S(=O)(=O)N3CCc4ccccc4C3)cc2c1=O -4.12%
Cc1sc2ncn(CC(=O)N3CCN(c4ccc(F)cc4)CC3)c(=O)c2c1S(=O)(=O)N1CCCCC1 -9.05%
Cc1ccc(S(=O)(=O)c2cn(CC(=O)Nc3ccc4c(c3)OCO4)c3ccccc3c2=O)cc1 -17.6%
Cc1cccc2sc(N(CCCN(C)C)C(=O)c3ccc(Cl)s3)nc12 -7.2%
COc1cc(C2C(C(=O)OCC(C)C)=C(C)N=C3SCCC(=O)N32)ccc1OCc1ccccc1 (stereo unspecified) -15.4%
Cc1cccc(NC(=O)Cn2nnc(C(=O)Nc3ccc(F)c(Cl)c3)c2N)c1 -15.3%
COc1cccc(NC(=O)CSc2nc(=O)n(Cc3ccco3)c3c2CCC3)c1 -57.9%
N#Cc1c(NC(=O)c2cccc3ccccc23)sc2c1CCCC2 -29.7%
CC1=C(C(=O)Nc2ccc(C)cc2C)C(C(C)C)n2nc(SCc3ccccc3Cl)nc2N1 (stereo unspecified) -10.9%
Cc1cc(C)c2nc(N(Cc3cccnc3)C(=O)c3ccc(S(=O)(=O)N(C)C)cc3)sc2c1 -21.6%
CCN1CCN(c2cc3c(cc2F)c(=O)c(S(=O)(=O)c2ccc(OC)cc2)cn3CC)CC1 0.739%
Cn1c(C(=O)NCc2ccccc2F)cc2oc3ccccc3c21 -17.2%
O=C(c1ccco1)n1nc(-c2ccccc2)nc1NCc1ccc(F)cc1 2.66%
CCN1CCN(c2oc(-c3ccc(COc4ccc(C)cc4)o3)nc2C#N)CC1 -24.8%
CCCCNc1ncnc2c1nnn2C -3.4%
COc1ccc2oc(-c3cccc(NC(=O)c4ccc(C#N)cc4F)c3)nc2c1 -4.73%
COc1cc(C(=O)Nc2ccc3[nH]c(=O)sc3c2)cc(OC)c1OC 12.1%
CC1=C(C(=O)Nc2cccnc2)C(c2cccc(F)c2)n2nc(SCc3ccccc3)nc2N1 (stereo unspecified) -12.5%
COc1cccc(NC(=O)Cn2c(=O)n(-c3ccc(Cl)cc3)c(=O)c3oc4ccccc4c32)c1 -22.9%
Cc1ccc(S(=O)(=O)N2CCN(Cc3noc(CCC(=O)N4CCCCC4)n3)CC2)c(C)c1 -23.1%
CC(C)Cn1c(=O)c2sccc2n2c(CCCC(=O)NCCc3ccccc3)nnc12 -6.97%
COc1cccc(C(=O)NCC(=O)OCc2cc(=O)n3c(C)csc3n2)c1 4.42%
Cc1nc(Nc2ccc(Cl)cc2)cc(-c2ccccc2)n1 37.4%
COc1ccccc1CNC(=O)NCc1noc2ccc(C)cc12 -24.6%
COc1ccc(CNC(=O)c2nc(SC(C)C)ncc2Cl)cc1 -22%
Cc1ccn2c(Nc3ccc4c(c3)OCO4)c(-c3ccc(N(C)C)cc3)nc2c1 30.3%
CCOC(=O)c1c(-c2ccccc2)csc1NC(=O)c1cc(-c2ccc(Br)cc2)on1 0.503%
Cc1nc2ccc(S(=O)(=O)CCC(=O)Nc3ccc(C)c(C)c3)cc2s1 -17.1%
